For 31 molecules, binding signal results are on record in PMC9911399, “Two distinct binding modes provide the RNA-binding protein RbFox with extraordinary sequence specificity”.

To fix the notation:
T1: RBFOX1 RRM RbFoxmut (Fox-RRM*) (Homo sapiens, UniProt Q9NWB1 109-208, R118D;E147R;N151S;E152T)
T1 sequence: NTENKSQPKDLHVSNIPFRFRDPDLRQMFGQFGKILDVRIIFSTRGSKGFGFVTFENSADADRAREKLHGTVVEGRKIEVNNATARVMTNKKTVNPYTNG

B1: UAGGUCG (DNA:RNA)
RNA: GGGAGACCGGAAUUCAGAUUGUCCUAGGUCGUUAAAUCCCGUCGUAGCCACCA
DNA 1: CAATCTGAATTCCGGTCTCCC
DNA 2: TGGTGGCTACGACGGGATT
B2: AGGGCCU (DNA:RNA)
RNA: B1 RNA with U25A, A26G, U29C, G31U
DNA 1: CAATCTGAATTCCGGTCTCCC
DNA 2: TGGTGGCTACGACGGGATT
B3: UGAGAGA (DNA:RNA)
RNA: B1 RNA with A26G, G27A, U29A, C30G, G31A
DNA 1: CAATCTGAATTCCGGTCTCCC
DNA 2: TGGTGGCTACGACGGGATT
B4: AUCUCAA (DNA:RNA)
RNA: GGGAGACCGGAAUUCAGAUUGUCCAUCUCAAUUAAAUCCCGUCGUAGCCACCA
DNA 1: CAATCTGAATTCCGGTCTCCC
DNA 2: TGGTGGCTACGACGGGATT
B5: AAUCUUC (DNA:RNA)
RNA: B1 RNA with U25A, G27U, G28C, C30U, G31C
DNA 1: CAATCTGAATTCCGGTCTCCC
DNA 2: TGGTGGCTACGACGGGATT
B6: CGAGGGA (DNA:RNA)
RNA: B4 RNA with A25C, U26G, C27A, U28G, C29G, A30G
DNA 1: CAATCTGAATTCCGGTCTCCC
DNA 2: TGGTGGCTACGACGGGATT
B7: GGGCAAU (DNA:RNA)
RNA: B4 RNA with A25G, U26G, C27G, U28C, C29A, A31U
DNA 1: CAATCTGAATTCCGGTCTCCC
DNA 2: TGGTGGCTACGACGGGATT
B8: CGUCUCU (DNA:RNA)
RNA: B1 RNA with U25C, A26G, G27U, G28C, G31U
DNA 1: CAATCTGAATTCCGGTCTCCC
DNA 2: TGGTGGCTACGACGGGATT
B9: UCAUCUU (DNA:RNA)
RNA: B4 RNA with A25U, U26C, C27A, A30U, A31U
DNA 1: CAATCTGAATTCCGGTCTCCC
DNA 2: TGGTGGCTACGACGGGATT
B10: UUGCUCA (DNA:RNA)
RNA: B1 RNA with A26U, G28C, G31A
DNA 1: CAATCTGAATTCCGGTCTCCC
DNA 2: TGGTGGCTACGACGGGATT
B11: CGUUAUU (DNA:RNA)
RNA: B4 RNA with A25C, U26G, C27U, C29A, A30U, A31U
DNA 1: CAATCTGAATTCCGGTCTCCC
DNA 2: TGGTGGCTACGACGGGATT
B12: AAUAAGA (DNA:RNA)
RNA: B4 RNA with U26A, C27U, U28A, C29A, A30G
DNA 1: CAATCTGAATTCCGGTCTCCC
DNA 2: TGGTGGCTACGACGGGATT
B13: UCCAUUA (DNA:RNA)
RNA: B4 RNA with A25U, U26C, U28A, C29U, A30U
DNA 1: CAATCTGAATTCCGGTCTCCC
DNA 2: TGGTGGCTACGACGGGATT
B14: CCGUGAA (DNA:RNA)
RNA: B4 RNA with A25C, U26C, C27G, C29G
DNA 1: CAATCTGAATTCCGGTCTCCC
DNA 2: TGGTGGCTACGACGGGATT
B15: ACCCUUA (DNA:RNA)
RNA: B4 RNA with U26C, U28C, C29U, A30U
DNA 1: CAATCTGAATTCCGGTCTCCC
DNA 2: TGGTGGCTACGACGGGATT
B16: AGCAGCC (DNA:RNA)
RNA: B4 RNA with U26G, U28A, C29G, A30C, A31C
DNA 1: CAATCTGAATTCCGGTCTCCC
DNA 2: TGGTGGCTACGACGGGATT
B17: UUAAAAA (DNA:RNA)
RNA: B4 RNA with A25U, C27A, U28A, C29A
DNA 1: CAATCTGAATTCCGGTCTCCC
DNA 2: TGGTGGCTACGACGGGATT
B18: GGUCAUA (DNA:RNA)
RNA: B4 RNA with A25G, U26G, C27U, U28C, C29A, A30U
DNA 1: CAATCTGAATTCCGGTCTCCC
DNA 2: TGGTGGCTACGACGGGATT
B19: CACAUUA (DNA:RNA)
RNA: B4 RNA with A25C, U26A, U28A, C29U, A30U
DNA 1: CAATCTGAATTCCGGTCTCCC
DNA 2: TGGTGGCTACGACGGGATT
B20: CACAAUU (DNA:RNA)
RNA: B4 RNA with A25C, U26A, U28A, C29A, A30U, A31U
DNA 1: CAATCTGAATTCCGGTCTCCC
DNA 2: TGGTGGCTACGACGGGATT
B21: UAUCUUU (DNA:RNA)
RNA: B1 RNA with G27U, G28C, C30U, G31U
DNA 1: CAATCTGAATTCCGGTCTCCC
DNA 2: TGGTGGCTACGACGGGATT
B22: AAAUCGU (DNA:RNA)
RNA: B4 RNA with U26A, C27A, A30G, A31U
DNA 1: CAATCTGAATTCCGGTCTCCC
DNA 2: TGGTGGCTACGACGGGATT
B23: ACUCUGC (DNA:RNA)
RNA: B4 RNA with U26C, C27U, U28C, C29U, A30G, A31C
DNA 1: CAATCTGAATTCCGGTCTCCC
DNA 2: TGGTGGCTACGACGGGATT
B24: AUACCGA (DNA:RNA)
RNA: B4 RNA with C27A, U28C, A30G
DNA 1: CAATCTGAATTCCGGTCTCCC
DNA 2: TGGTGGCTACGACGGGATT
B25: CGUUGUU (DNA:RNA)
RNA: B4 RNA with A25C, U26G, C27U, C29G, A30U, A31U
DNA 1: CAATCTGAATTCCGGTCTCCC
DNA 2: TGGTGGCTACGACGGGATT
B26: GUCCAGU (DNA:RNA)
RNA: B4 RNA with A25G, U28C, C29A, A30G, A31U
DNA 1: CAATCTGAATTCCGGTCTCCC
DNA 2: TGGTGGCTACGACGGGATT
B27: UAGGGCG (DNA:RNA)
RNA: B1 RNA with U29G
DNA 1: CAATCTGAATTCCGGTCTCCC
DNA 2: TGGTGGCTACGACGGGATT
B28: ACGCAUU (DNA:RNA)
RNA: B4 RNA with U26C, C27G, U28C, C29A, A30U, A31U
DNA 1: CAATCTGAATTCCGGTCTCCC
DNA 2: TGGTGGCTACGACGGGATT
B29: GGUAUGC (DNA:RNA)
RNA: B1 RNA with U25G, A26G, G27U, G28A, C30G, G31C
DNA 1: CAATCTGAATTCCGGTCTCCC
DNA 2: TGGTGGCTACGACGGGATT
B30: UGAGGAU (DNA:RNA)
RNA: B1 RNA with A26G, G27A, U29G, C30A, G31U
DNA 1: CAATCTGAATTCCGGTCTCCC
DNA 2: TGGTGGCTACGACGGGATT
B31: UAUUGGG (DNA:RNA)
RNA: B1 RNA with G27U, G28U, U29G, C30G
DNA 1: CAATCTGAATTCCGGTCTCCC
DNA 2: TGGTGGCTACGACGGGATT

Numbering of substitutions follows the chain as printed; changes in the protein carry UniProt numbers. The list shows a part of the results.

The experiment deals with T1, RBFOX1 RRM RbFoxmut (Fox-RRM*). Nature of the experiment: EMSA; HiTS-Eq, 1 nM pool, 10 min; buffer printed only for the single-RNA assays: 10 mM Tris pH 7.5, 150 mM NaCl, 3.4 mM EDTA, 0.001% NP-40, 30 C. To be noted: tags: His6 N-terminal (pET28a); label: 5' 32P. In short, it runs like this:
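Purified wild-type or mutant RbFox RRM at increasing concentrations was equilibrated with 1 nM of 5′-radiolabelled RNA carrying 7 randomized nucleotides for 10 min in 50 µL. Unbound RNA was separated by 8% native PAGE and sequenced. Relative association constants came from read-count changes of each RNA species compared with the control reaction, normalised to the cognate motif.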
In general terms: Mobility shift assays separate free from complexed probe on a gel.
On to B1, for which the binding signal is 0.149 KA relative to UGCAUGU.
Consider B2, for which the binding signal was 0.0732 KA relative to UGCAUGU.
With B3, the binding signal is 0.0993 KA relative to UGCAUGU.
As for B4, the figure is 0.0984 KA relative to UGCAUGU; as for B5, 0.0781 KA relative to UGCAUGU; as for B6, 0.0693 KA relative to UGCAUGU.
Take B7: the binding signal was 0.0601 KA relative to UGCAUGU.
As for B8, the figure is 0.0521 KA relative to UGCAUGU; as for B9, 0.0764 KA relative to UGCAUGU.
As for B10, the figure is 0.105 KA relative to UGCAUGU.
In the case of B11, the binding signal was 0.116 KA relative to UGCAUGU.
As for B12, the figure is 0.0558 KA relative to UGCAUGU.
As for B13, the figure is 0.0895 KA relative to UGCAUGU.
As for B14, the figure is 0.0944 KA relative to UGCAUGU.
Turning to B15, the binding signal is 0.133 KA relative to UGCAUGU.
As for B16, the binding signal was 0.0801 KA relative to UGCAUGU.
As for B17, the figure is 0.0949 KA relative to UGCAUGU.
As for B18, the figure is 0.0878 KA relative to UGCAUGU; as for B19, 0.126 KA relative to UGCAUGU.
As for B20, the figure is 0.0674 KA relative to UGCAUGU; as for B21, 0.0747 KA relative to UGCAUGU; as for B22, 0.075 KA relative to UGCAUGU.
Consider B23, for which the binding signal is 0.0685 KA relative to UGCAUGU.
As for B24, the figure is 0.0962 KA relative to UGCAUGU; as for B25, 0.121 KA relative to UGCAUGU.
In the case of B26, the binding signal is 0.117 KA relative to UGCAUGU.
Consider B27, for which the binding signal is 0.0883 KA relative to UGCAUGU.
As for B28, the figure is 0.0987 KA relative to UGCAUGU.
As for B29, the figure is 0.398 KA relative to UGCAUGU; as for B30, 0.0968 KA relative to UGCAUGU.
In the case of B31, the binding signal is 0.102 KA relative to UGCAUGU.
